# According to PubChem BioAssay AID1345083 (National Center for Advancing Translational Sciences (NCATS), 2018):
# Several values for one entry are separate records, joined by “and”; a condition that tells them apart may be missing. Identical values can stand only once. Out of some 94,000 compounds screened, about 6,200 (6.6%) were called active. The inconclusive results got no clear call from the source; some entries with a clear call stand among them for comparison. Calls follow the shape of the dose curve; as a rule, active = well fitted inhibition curve with a large enough effect; inconclusive = small, poorly fitted or top-dose-only effect; inactive = flat fitted curve, though single readings scatter. Potencies of inconclusive entries are doubtful fits and often do not repeat.
# Test: Cytotoxic Profiling in HEK 293 Cell Line of Diverse Libraries Using Quantitative High-Throughput Screening; also: nearly all actives have a fitted effect of over 60% in size
# Conditions: HEK 293 viability, ATP luminescence (CellTiter-Glo), 48-72 h; activity change, negative = cytotoxicity: at 115 µM (top of the series) unless noted; series mostly up to 115 µM
# In short: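 Read-out: CellTiter-Glo ATP luminescence. Cells: HEK 293, 250 cells/well. Exposure: 48 or 72 hr, 37 degree Celsius.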
# % is scaled to controls: 0 for no effect and ±100 for the full control effect; potency is read from the fitted curve at half-maximal effect; tags tell the direction and shape of the fitted curve.
Compound,"activity change, negative = cytotoxicity",Potency
O=C(Cc1cccc(F)c1)N1CCC(c2n[nH]c(=O)n2-c2ccccc2)CC1,inactive: -12.3%,
CCOc1ccc(C(=O)N2c3ccccc3CC2c2nc(CCOC)no2)cc1 (stereo unspecified),,"inconclusive: 39.8 µM [inhibitor, partial curve]"
CC(C)(C)CC(=O)N1CC[C@H]2COC(=O)N2c2cc(F)ccc2C1,inactive: 1.65% [at 172 µM],
CCc1ccc(CNC(=O)C2(Cc3cccnc3)CCCCC(=O)N2)cc1 (stereo unspecified),,"inconclusive: 31.6 µM [inhibitor, partial curve, poor fit]"
COc1ccc(C(=O)N2CCC[C@H]2c2nc(-c3ccccc3Cl)no2)cc1OC,,"inconclusive: 89.1 µM [inhibitor, single point]"
Cc1ccccc1C(=O)NC1CCN(c2cc(-c3ccc(Cl)cc3)[nH]n2)CC1,,"inconclusive: 28.2 µM [inhibitor, full curve, poor fit]"
O=C(CC1CCCCN(Cc2ccccc2)C1=O)N1CCN(c2ccc(F)cc2)CC1 (stereo unspecified),,"inconclusive: 50.1 µM [inhibitor, partial curve, poor fit]"
Cc1nn(-c2ccc(F)cc2)c(C)c1[C@@H]1C=C[C@@H](NS(=O)(=O)c2cccs2)C1,,"inconclusive: 100 µM [inhibitor, partial curve]"
O=C(NC1CC1)C1CCN(Cc2ccccc2-c2ccccc2F)CC1,inactive: -20.1%,
O=C(c1ccc(-c2cccs2)cc1)N1CCC(C(=O)N2CCN(Cc3ccccc3)CC2)CC1,,"inconclusive: 50.1 µM [inhibitor, partial curve, poor fit]"
CN(C)C(=O)c1n[nH]c2c1CN(C(=O)c1cc(F)cc(F)c1)CC2,inactive: -2.54%,
CCn1cc(CN(C)C(=O)[C@H]2CN(Cc3ccccc3)C[C@H]2C(=O)O)c(C)n1,inactive: -19.3%,
COc1ccc2c(c1)c(CN1CC[C@H](CO)[C@H](N(C)C)C1)cn2C(C)C,,"inconclusive: 50.1 µM [inhibitor, partial curve, poor fit]"
O=C(NC(c1ccccc1)c1ccccc1)c1cnc2c(c1)N(Cc1ccccc1)CCC2,,"inconclusive: 63.1 µM [inhibitor, full curve]"
O=C(Cc1ccccc1F)NC1CCN(c2cc(-c3cccs3)[nH]n2)C1 (stereo unspecified),,active: 15.8 µM
O=C(NCC(=O)N1CCC(c2ccccc2)CC1)c1cccc(-c2ccc(C(F)(F)F)cc2)c1,,active: 10 µM
CCOCCCNC(=O)C1CCCCN1Cc1ccc(-c2ccccc2OC)cc1 (stereo unspecified),,"inconclusive: 44.7 µM [inhibitor, partial curve, poor fit]"
Cc1cccc(OCCc2noc(C3CN(C4CCN(Cc5ccccc5)CC4)C3)n2)c1,,"inconclusive: 35.5 µM [inhibitor, partial curve, poor fit]"
COCC(=O)N1CCCC(C(=O)NCCCc2ccccc2)CCNC(=O)CC1 (stereo unspecified),inactive: -2.26%,
O=C(C1CCCC1)N1CCC(n2cc(-c3nc(-c4ccccc4)no3)nn2)CC1,,"inconclusive: 50.1 µM [inhibitor, partial curve, poor fit]"
COc1ccccc1C(=O)N1CCCC2(CC(c3cccnc3)=NO2)C1 (stereo unspecified),inactive: -0.639%,

Compound,"activity change, negative = cytotoxicity",Potency
O=C1CC(c2ccccc2)N(C(=O)CCc2ccccc2)CCCCCN1 (stereo unspecified),inactive: 1.34%,
COc1ccc(NC(=O)c2cn3cc(-c4cccc(C(F)(F)F)c4)sc3n2)cc1,inactive: -29.4%,
O=[S+]([O-])(Nc1ccccc1)c1ccc2c(c1)OCCN(Cc1cccnc1)C2,,"inconclusive: 79.4 µM [inhibitor, partial curve, poor fit]"
CN(C)C[C@@H]1CN(C2CCOCC2)C[C@H]1NC(=O)c1ccc(F)c(Cl)c1,,active: 79.4 µM
COCCN1CCN(C(=O)[C@@H]2Cc3cn(Cc4cc(C)on4)c4cccc(c34)[C@H](CC(C)C)N2)CC1,inactive: -29.4%,
Cc1cccc(C(=O)N2CCC3(CC2)CC(c2ccccc2)C(=O)N3)c1 (stereo unspecified),,"inconclusive: 89.1 µM [inhibitor, single point]"
O=C1CCN(C(=O)c2ccccc2)CCCC(C(=O)NCCCN2CCCc3ccccc32)CCN1 (stereo unspecified),,"inconclusive: 89.1 µM [inhibitor, single point]"
COc1ccc(C(=O)N2CCC[C@H](n3c(=O)n(C)c4cccnc43)C2)cn1,inactive: -24.7%,
N#Cc1cccc(CN2Cc3[nH]cnc3C[C@H]2c2nc(-c3cccc([N+](=O)[O-])c3)no2)c1,,"inconclusive: 79.4 µM [inhibitor, partial curve, poor fit]"
CCCCCN1CCc2ccccc2OCC(=O)N(C)[C@@H](Cc2ccc(OCC(=O)OC)cc2)C1=O,,"inconclusive: 89.1 µM [inhibitor, single point]"
c1ccc(CN2CCC3(CC2)CC(c2cccnc2)=NO3)cc1,,"inactive and inconclusive: 100 µM [inhibitor, partial curve]"
O=C(NC1CC1)c1ccc2nnc(Cc3ccco3)n2c1,,inactive
O=C(Nc1ccc2c(c1)CCC2)c1cc2c(s1)CN(C1CC1)C2,,"inconclusive: 35.5 µM [inhibitor, partial curve, poor fit]"
O=C(c1ccccc1Cl)N1CCCC(C(=O)N2CCC(c3ccccc3)CC2)C1 (stereo unspecified),,"inconclusive: 89.1 µM [inhibitor, single point]"
CC(=O)NCCC(=O)N1CCOc2c(O)cc(-c3cccc(Cl)c3)cc2C1,,"inconclusive: 56.2 µM [inhibitor, partial curve, poor fit]"
FC(F)(F)c1cccc(-c2cc(C3=CCOCC3)c3cncn3c2)c1,,active: 100 µM
CN(C(=O)Cc1c[nH]c2ncc(-c3cnn(C)c3)cc12)c1ccccc1,,"inconclusive: 63.1 µM [inhibitor, partial curve, poor fit]"
Cc1cccc(C(=O)N2CC(Oc3cccc(-c4nc(-c5ccccc5)no4)c3)C2)c1,,"inconclusive: 70.8 µM [inhibitor, partial curve, poor fit]"
O=C(Nc1ccccc1)[C@H]1O[C@H](CCN2CCN(c3ccccc3)CC2)CC[C@@H]1O,,"inconclusive: 126 µM [inhibitor, single point]"
CC(C)c1nc2c(c(-c3ccc(O)cc3)n1)CN(Cc1ccc(OC(F)(F)F)cc1)CC2,,active: 22.4 µM
